Where two headings read alike, the source gives them in different places.
T1: IL2Rα/β/γ receptor (high affinity IL2 receptor) on YT/STAT5-Luc cells expressing endogenous or over-expressed … (human, UniProt P01589 22-272; P14784 27-551; P31785 23-369)
T1 sequence (looked up) 1: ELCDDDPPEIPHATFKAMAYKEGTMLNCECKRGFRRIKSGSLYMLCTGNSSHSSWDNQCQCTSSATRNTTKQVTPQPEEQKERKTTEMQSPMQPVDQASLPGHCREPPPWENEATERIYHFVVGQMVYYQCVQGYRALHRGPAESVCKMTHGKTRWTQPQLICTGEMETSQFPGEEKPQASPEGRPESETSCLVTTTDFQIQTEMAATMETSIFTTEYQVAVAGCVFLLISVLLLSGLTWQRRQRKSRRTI
T1 sequence (looked up) 2: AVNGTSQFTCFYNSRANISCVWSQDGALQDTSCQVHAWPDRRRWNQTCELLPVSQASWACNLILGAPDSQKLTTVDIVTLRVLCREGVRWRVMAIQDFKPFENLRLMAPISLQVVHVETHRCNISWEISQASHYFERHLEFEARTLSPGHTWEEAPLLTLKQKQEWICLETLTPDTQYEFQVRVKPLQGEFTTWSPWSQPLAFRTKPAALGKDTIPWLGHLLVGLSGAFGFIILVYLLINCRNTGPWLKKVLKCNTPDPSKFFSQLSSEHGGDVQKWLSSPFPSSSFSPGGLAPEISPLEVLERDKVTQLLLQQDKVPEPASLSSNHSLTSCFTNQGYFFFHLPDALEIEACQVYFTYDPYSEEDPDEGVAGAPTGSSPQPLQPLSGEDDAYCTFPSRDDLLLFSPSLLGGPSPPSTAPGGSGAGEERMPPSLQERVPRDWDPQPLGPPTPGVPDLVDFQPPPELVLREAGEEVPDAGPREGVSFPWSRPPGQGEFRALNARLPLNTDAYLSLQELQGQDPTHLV
T1 sequence (looked up) 3: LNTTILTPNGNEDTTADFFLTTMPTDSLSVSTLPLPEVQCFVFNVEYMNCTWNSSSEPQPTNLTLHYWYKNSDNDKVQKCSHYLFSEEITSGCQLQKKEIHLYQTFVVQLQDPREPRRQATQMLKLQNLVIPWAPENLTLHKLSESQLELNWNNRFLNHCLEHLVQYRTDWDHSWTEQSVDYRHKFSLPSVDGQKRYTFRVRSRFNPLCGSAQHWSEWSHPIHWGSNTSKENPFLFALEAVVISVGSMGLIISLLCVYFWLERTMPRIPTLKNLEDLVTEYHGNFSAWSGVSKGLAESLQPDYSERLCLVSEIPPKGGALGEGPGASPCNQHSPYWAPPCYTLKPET

T2: IL2Rβ/γ receptor (low/medium affinity IL2 receptor) on YT/STAT5-Luc cells with IL2Rα knocked out (human, UniProt P14784 27-551; P31785 23-369)
T2 sequence (looked up) 1: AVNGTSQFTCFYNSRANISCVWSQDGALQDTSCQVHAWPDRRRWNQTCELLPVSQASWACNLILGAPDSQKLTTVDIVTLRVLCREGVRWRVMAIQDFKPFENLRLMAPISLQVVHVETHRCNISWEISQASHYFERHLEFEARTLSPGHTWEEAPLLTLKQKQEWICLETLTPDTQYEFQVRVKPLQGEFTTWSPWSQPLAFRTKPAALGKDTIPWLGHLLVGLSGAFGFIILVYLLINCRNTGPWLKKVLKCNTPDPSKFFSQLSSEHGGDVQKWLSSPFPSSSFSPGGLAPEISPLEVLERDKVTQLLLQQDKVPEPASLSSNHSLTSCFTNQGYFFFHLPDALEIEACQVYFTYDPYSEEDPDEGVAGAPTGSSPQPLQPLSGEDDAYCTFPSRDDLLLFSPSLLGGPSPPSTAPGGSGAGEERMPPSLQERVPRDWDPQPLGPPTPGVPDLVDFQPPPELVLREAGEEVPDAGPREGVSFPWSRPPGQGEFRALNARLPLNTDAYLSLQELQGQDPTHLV
T2 sequence (looked up) 2: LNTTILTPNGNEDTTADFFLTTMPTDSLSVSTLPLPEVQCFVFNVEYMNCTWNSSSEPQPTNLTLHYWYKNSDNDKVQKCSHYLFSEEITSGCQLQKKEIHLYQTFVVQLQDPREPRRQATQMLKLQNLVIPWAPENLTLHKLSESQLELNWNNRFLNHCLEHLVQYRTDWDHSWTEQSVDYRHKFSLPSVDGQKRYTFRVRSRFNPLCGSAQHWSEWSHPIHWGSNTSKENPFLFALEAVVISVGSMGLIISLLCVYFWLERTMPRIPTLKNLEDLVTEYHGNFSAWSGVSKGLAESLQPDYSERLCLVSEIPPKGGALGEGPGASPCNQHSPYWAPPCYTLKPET


Assays:
Experiment in all cases: cell-based or functional assay
[1] = target: T1, IL2Rα/β/γ receptor (high affinity IL2 …)
[2] = target: T2, IL2Rβ/γ receptor (low/medium affinity …)
[3] = target: T1, IL2Rα/β/γ receptor (high affinity IL2 …); remark: listed apart in the source
[4] = target: T2, IL2Rβ/γ receptor (low/medium affinity …); remark: listed apart in the source

EC50 (M), STAT5-Luc IL2 reporter assay, CD25 OE/PD1 OE [1] [M]	Max Fold induction, STAT5-Luc IL2 reporter assay, CD25 OE/PD1 OE [1] [fold]	EC50 (M), STAT5-Luc IL2 reporter assay, CD25 KO/PD1 OE [2] [M]	Max Fold induction, STAT5-Luc IL2 reporter assay, CD25 KO/PD1 OE [2] [fold]	EC50 (M), STAT5-Luc IL2 reporter assay, CD25 OE/PD1 OE [3] [M]	Max Fold induction, STAT5-Luc IL2 reporter assay, CD25 OE/PD1 OE [3] [fold]	EC50 (M), STAT5-Luc IL2 reporter assay, CD25 KO/PD1 OE [4] [M]	Max Fold induction, STAT5-Luc IL2 reporter assay, CD25 KO/PD1 OE [4] [fold]	Binder
1.75e-10	7.77	2.05e-09	4.42	–	–	–	–	aPD1(9048)-IL2-IL2Ra (other) VH: QVQLVQSGAEVKRPGSSVKVSCKVSGVTFRNFAIIWVRQAPGQGLEWMGGIIPFFSAANYAQSFQGRVTITPDESTSTAFMELASLRSEDTAVYYCAREGERGHTYGFDYWGQGTLVTVSS VL: [about 100 residues skipped]
–	–	–	–	4.64e-11	4.62	5.32e-11	4.24	REGN13233 (anti-PD-1 antibody with VH/VL of SEQ ID NOs: 41/10 linked to IL2 variant IL2(3 m)) (other) VH: QVQLVQSGAEVKRPGSSVKVSCKVSGVTFRNFAIIWVRQAPGQGLEWMGGIIPFFSAANYAQSFQGRVTITPDESTSTAFMELASLRSEDTAVYYCAREGERGHTYGFDYWGQGTLVTVSS VL: [about 100 residues skipped]
